PubChem BioAssay AID588342 (National Center for Advancing Translational Sciences (NCATS), 2011)
“And” between values parts separate entries of the source, which are not always exact repeats. Equal values may be shown once. About 25,000 (6.9%) of roughly 360,000 compounds were called active. The inconclusive results got no clear call from the source; some entries with a clear call stand among them for comparison. Calls follow the shape of the dose curve; as a rule, active = well fitted inhibition curve with a large enough effect; inconclusive = small, poorly fitted or top-dose-only effect; inactive = flat fitted curve, though single readings scatter. Potencies beside an inconclusive call are fits to weak or partial responses and may not hold up.

Biological target: Luciferin 4-monooxygenase (Photinus pyralis) (UniProt P08659)
Assay: qHTS profiling assay for firefly luciferase inhibitor/activator using purifed enzyme and Km concentrations of substrates (counterscreen for miR-21 project); also: nearly all actives have a fitted effect of over 55% in size;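 as to activity change, negative = inhibition: plate controls were vehicle for no effect and reference inhibitor for full effect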
Conditions: purified FLuc, luminescence inhibition; activity change, negative = inhibition: at 57.5 µM (top of the series)
Summary of the method: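 Purified P. pyralis luciferase (10nM final) with 10uM D-luciferin and 10uM ATP (Km levels) in 50mM Tris acetate pH 7.5, 10mM Mg acetate, 0.01% Tween-20, 0.05% BSA; qHTS 6-point titration, ~60 µM downward; luminescence read.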
Potency is read from the fitted curve at half-maximal effect; tags tell the direction and shape of the fitted curve.

UniProt P08659, sequence (P08659 whole entry, looked up): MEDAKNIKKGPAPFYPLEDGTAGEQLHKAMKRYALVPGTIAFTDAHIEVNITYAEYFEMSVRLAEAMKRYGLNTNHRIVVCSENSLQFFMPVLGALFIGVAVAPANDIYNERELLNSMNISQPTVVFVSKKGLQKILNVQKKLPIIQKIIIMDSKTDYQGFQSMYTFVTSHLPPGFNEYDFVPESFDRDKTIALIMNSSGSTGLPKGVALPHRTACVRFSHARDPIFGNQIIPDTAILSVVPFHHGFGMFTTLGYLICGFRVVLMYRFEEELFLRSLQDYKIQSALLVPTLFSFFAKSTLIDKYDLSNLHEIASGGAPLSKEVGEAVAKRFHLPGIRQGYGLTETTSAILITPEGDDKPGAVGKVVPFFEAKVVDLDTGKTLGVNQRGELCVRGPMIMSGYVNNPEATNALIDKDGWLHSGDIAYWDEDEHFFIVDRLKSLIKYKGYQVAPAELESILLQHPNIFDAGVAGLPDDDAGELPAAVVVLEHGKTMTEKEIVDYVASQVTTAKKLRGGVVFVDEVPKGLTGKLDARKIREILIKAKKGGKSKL

Structure (SMILES) | Potency | activity change, negative = inhibition
CCN(CC)c1ccc2c(c1)CCCN2 | inconclusive: 21.3 µM [inhibitor, partial curve, poor fit] | –
COc1ccc(NC(=O)CS(=O)(=O)c2cn(CC(=O)N3CCOCC3)c3ccccc23)cc1 | inactive | –
CC(C)c1ccc(NC(=O)Cc2ccc(NC3=NC4CS(=O)(=O)CC4S3)cc2)cc1 (centres undefined) | active: 21.3 µM | –
COc1ccc(-c2csc(NC(=O)c3c(C)noc3C)n2)cc1F | inconclusive: 37.9 µM [inhibitor, partial curve, poor fit] | –
CSc1ccc(CCNC(=O)c2csc3c2CCCCC3)cc1 | inconclusive: 3.79 µM [inhibitor, partial curve, poor fit] | –
COc1ccc(O)c(-c2cc(-c3ccccc3Cl)[nH]n2)c1 | active: 10.7 µM | –
O=C(c1noc2c1CCc1ccccc1-2)N1CCCc2ccccc21 | inconclusive: 23.9 µM [inhibitor, single point] | –
COc1ccc(CNc2ncc(-c3ccc(F)cc3)n2C)c2ccccc12 | inconclusive: 37.9 µM [inhibitor, partial curve, poor fit] | –
NC(=O)c1ccc(-c2noc(-c3cccc(Cl)c3)n2)cc1 | inconclusive: 1.9 µM [inhibitor, partial curve, poor fit] | –
CCN(CC(=O)Nc1ccc2c(c1)OCCO2)C(=O)COc1cc(C)ccc1Cl | inactive | –
Cc1cc(C)c(NC(=O)C(=O)NCCc2csc(-c3ccc(F)cc3)n2)c(C)c1 | inactive | –
CCc1ccc(C2CC(=O)Nc3c2c(=O)nc2c(C)cccn32)cc1 (centres undefined) | inconclusive: 21.3 µM [inhibitor, partial curve, poor fit] and inconclusive: 16.9 µM [inhibitor, partial curve, poor fit] | –
O=C(Nc1nc2ccc([N+](=O)[O-])cc2s1)c1c(F)cccc1F | active: 8.49 µM | –
Cc1cccc(NC(=O)Cn2c(=O)n(Cc3ccccc3)c(=O)c3oc4ccccc4c32)c1C | inactive | –
N/C(=N\OC(=O)c1ccc2c(c1)OCO2)c1cccc(Br)c1 | active: 0.135 µM | –
O=C(O)c1ccccc1C(=O)NCC(O)COc1ccc(Cl)cc1 (centres undefined) | inconclusive: 21.3 µM [inhibitor, partial curve, poor fit] | –
CCOc1ccc(OCc2ccc(C(=O)N3CCCCC3)o2)cc1 | inconclusive: 21.3 µM [inhibitor, single point] | –
COc1cccc(-c2nn(C)c3sc(C(=O)NCc4ccc(OC)cc4OC)cc23)c1 | inactive | –
Nc1c(C(=O)OCC2CCCO2)c2nc3ccccc3nc2n1C1CCCC1 (centres undefined) | inconclusive: 23.9 µM [inhibitor, partial curve, poor fit] | –
CC(=O)Nc1ccc(-c2cc3ccccc3o2)cc1 | active: 3.01 µM | –
O=C(COc1ccc(Cl)cc1)N1CCCC1 | inconclusive: 26.9 µM [inhibitor, partial curve, poor fit] | –
CC(=Nc1ccccc1C(F)(F)F)c1ccncc1 | inactive | –

Structure (SMILES) | Potency | activity change, negative = inhibition
CC(C)(C)c1cc[n+](C2=C([O-])c3ccccc3C(=O)/C2=N\S(=O)(=O)c2cccs2)cc1 | inconclusive: 21.3 µM [inhibitor, partial curve, poor fit] | –
COc1ccccc1C(=O)NNC(=O)c1ccc(NS(=O)(=O)c2cccs2)cc1 | inconclusive: 37.9 µM [inhibitor, single point] | –
Cc1sc(NC(=O)CCCC(=O)O)c(C(N)=O)c1-c1ccccc1 | active: 0.757 µM | –
O=[N+]([O-])c1ccc(-c2cnc(SCc3ccccc3Cl)[nH]2)cc1 | inconclusive: 26.9 µM [inhibitor, single point] | –
CCc1cnc2c(c1SC(C(C)=O)C(=O)N(C)C)c(=O)n(C)c(=O)n2C (centres undefined) | inconclusive: 33.8 µM [inhibitor, partial curve, poor fit] | –
CC(C)c1cc(-c2nc(-c3ccc(Cl)cc3)no2)n[nH]1 | active: 9.53 µM | –
CCCC1CCc2[nH]nc(C(=O)NN)c2C1 (centres undefined) | inactive | –
COC(=O)c1ccccc1S(=O)(=O)N1CCC(NC(=O)C(Cc2cccc(OC)c2OC)NC(C)=O)CC1 (centres undefined) | inactive | –
CCCSc1nnc(NC(=O)c2ccco2)s1 | inconclusive: 23.9 µM [inhibitor, partial curve] | –
CC(C)c1cc(=O)n2[nH]c(SCc3ccccc3)nc2n1 | inconclusive: 37.9 µM [inhibitor, partial curve, poor fit] | –
O=c1cc(/C=C/c2cccs2)[nH]c2ccccc12 | inconclusive: 23.9 µM [inhibitor, single point] | –
O=C(NCCc1ccccc1)C(=O)NC1CCCCC1 | – | inactive: -0.956% [at 2.3 µM]
c1ccc(-c2cccc(-c3ccccn3)n2)nc1 | inconclusive: 26.9 µM [inhibitor, single point] | –
C[C@H](NS(=O)(=O)c1ccccc1)C(=O)OCC(=O)NC(=O)Nc1ccc2c(c1)OCCO2 | inconclusive: 19 µM [inhibitor, partial curve] | –
CN(CCC#N)C(=O)c1cc2c(s1)-c1ccccc1SC2 | active: 10.7 µM | –
O=[N+]([O-])c1nn(-c2ccccc2)n(O)c1=NCCc1ccccc1 | inconclusive: 15.1 µM [inhibitor, partial curve, poor fit] | –
Cc1nc(-c2ccc(C(=O)Nc3ccc(F)cc3)cc2)cs1 | active: 0.757 µM | –
COc1cc(OC)cc(C(=O)N[C@H](C(=O)OCC(=O)N2CCc3ccccc32)C(C)C)c1 | active: 15.1 µM | –
COc1ccc(CCN2C(=O)CS/C2=N\NC(=O)c2ccc(C(C)(C)C)cc2)cc1OC | inconclusive: 37.9 µM [inhibitor, partial curve, poor fit] | –
Brc1c(CSc2nncc3ccccc23)nc2ccccn12 | inconclusive: 23.9 µM [inhibitor, single point] | –
COc1cccc(-n2c(=O)c3c(C)c(C)sc3n(Cc3ccccc3C#N)c2=O)c1 | inactive | –
CCc1ccc(CCC(=O)Nc2ccc(C)c(C)c2)o1 | inconclusive: 21.3 µM [inhibitor, partial curve, poor fit] | –
